{
  "source": "patent US20250084178A1",
  "about": "(ARCUS BIOSCIENCES, published 2025)",
  "binders": {"B1": {"name": "hu31.2_IGG4.P (antibody, human IgG4 S228P, kappa, V domains shown)", "VH": "QVQLVQSGAEVKKPGASVKVSCKVSGDSITAYFMHWVRQAPGKGLEWMGRIDPDHERTKYAEKFKNRVTMTSDTSTNTVYMELSSLRSEDTAVYYCATERVPGFETDYWGQGTMVTVSS", "VL": "DIVLTQSPALAVSPGQRATITCRTQQTVDHYGTTYMNWYQQKPGQPPKLLIYLASSLASGVPARFSGSGSGTDFTLTINPVEANDTANYYCQQSRNLWTFGGGTKVEIKR", "notes": "humanized variant of antibody 31, IgG4 (S228P)"}, "B2": {"name": "hu31.3_IGG4.P (antibody, human IgG4 S228P, kappa, V domains shown)", "VH": "B1 VH", "VL": "B1 VL with Q25N, Q26P, N84D", "notes": "as for B1"}},
  "key": {"[1]": {"target": "T1, human CD39 expressed on the cell surface (human, UniProt P49961 1-510)", "T1 sequence": "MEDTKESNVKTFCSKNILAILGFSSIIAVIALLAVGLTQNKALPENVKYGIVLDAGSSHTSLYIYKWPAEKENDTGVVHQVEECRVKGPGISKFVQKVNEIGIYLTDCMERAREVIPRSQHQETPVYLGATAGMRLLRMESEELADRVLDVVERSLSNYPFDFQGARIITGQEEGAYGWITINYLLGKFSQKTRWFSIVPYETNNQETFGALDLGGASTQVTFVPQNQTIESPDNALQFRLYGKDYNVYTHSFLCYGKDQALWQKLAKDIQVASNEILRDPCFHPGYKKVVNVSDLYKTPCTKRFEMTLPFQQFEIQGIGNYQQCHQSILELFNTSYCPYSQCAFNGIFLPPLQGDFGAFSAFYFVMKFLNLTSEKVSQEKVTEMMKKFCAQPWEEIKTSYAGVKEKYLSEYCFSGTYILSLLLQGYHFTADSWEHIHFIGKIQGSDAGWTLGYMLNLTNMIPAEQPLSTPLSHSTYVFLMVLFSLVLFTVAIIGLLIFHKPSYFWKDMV", "assay": "cell-based or functional assay"}, "[2]": {"target": "T1, human CD39 expressed on the cell surface", "assay": "flow cytometry on purified human CD14+ monocytes, 0 uM ATP"}, "[3]": {"target": "T1, human CD39 expressed on the cell surface", "assay": "flow cytometry on purified human CD14+ monocytes, 400 uM ATP"}, "[4]": {"target": "T1, human CD39 expressed on the cell surface", "assay": "cell-based or functional assay", "remark": "listed apart in the source"}, "[5]": {"target": "T1, human CD39 expressed on the cell surface", "assay": "cell-based or functional assay", "remark": "listed apart in the source"}},
  "note": "Positions count from the first letter of the chain named. Names may count otherwise.",
  "data": [
    {"binder": "B1", "values": [
      {"measurement": "IC50, CD39 enzymatic inhibition on human monocytes, 400 uM ATP", "setting": "[1]", "result": 0.87, "unit": "nM"},
      {"measurement": "Max Inhibition (%), human monocytes, 400 uM ATP", "setting": "[1]", "result": 71, "unit": "%"},
      {"measurement": "EC50", "setting": "[2]", "result": 15, "unit": "nM"},
      {"measurement": "EC50", "setting": "[3]", "result": 25, "unit": "nM"}
    ]},
    {"binder": "B2", "values": [
      {"measurement": "IC50, CD39 enzymatic inhibition on SK-MEL-5 cells, 20 uM ATP", "setting": "[4]", "result": 0.61, "unit": "nM"},
      {"measurement": "Max Inhibition (%), SK-MEL-5 cells", "setting": "[4]", "result": 71, "unit": "%"},
      {"measurement": "IC50, CD39 enzymatic inhibition on THP-1 cells, 20 uM ATP", "setting": "[5]", "result": 0.08, "unit": "nM"},
      {"measurement": "Max Inhibition (%), THP-1 cells", "setting": "[5]", "result": 79, "unit": "%"},
      {"measurement": "EC50", "setting": "[2]", "result": 7.7, "unit": "nM"},
      {"measurement": "EC50", "setting": "[3]", "result": 26, "unit": "nM"}
    ]}
  ]
}
